Screen size: about 310,000 compounds; about 14,000 (4.5%) showed an effect of 50% or more. Effects have a minus sign here. The list shows a part of the results.
What follows are compounds tested against human ether-à-go-go-related gene (hERG) potassium channel (human, UniProt Q12809) (assay: primary screen, population patch clamp on CHO cells stably expressing hERG).
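Also: peak tail current of the secondary pulse compared with the same well before compound.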

human ether-à-go-go-related gene (hERG) potassium channel, sequence (Q12809 whole entry, looked up): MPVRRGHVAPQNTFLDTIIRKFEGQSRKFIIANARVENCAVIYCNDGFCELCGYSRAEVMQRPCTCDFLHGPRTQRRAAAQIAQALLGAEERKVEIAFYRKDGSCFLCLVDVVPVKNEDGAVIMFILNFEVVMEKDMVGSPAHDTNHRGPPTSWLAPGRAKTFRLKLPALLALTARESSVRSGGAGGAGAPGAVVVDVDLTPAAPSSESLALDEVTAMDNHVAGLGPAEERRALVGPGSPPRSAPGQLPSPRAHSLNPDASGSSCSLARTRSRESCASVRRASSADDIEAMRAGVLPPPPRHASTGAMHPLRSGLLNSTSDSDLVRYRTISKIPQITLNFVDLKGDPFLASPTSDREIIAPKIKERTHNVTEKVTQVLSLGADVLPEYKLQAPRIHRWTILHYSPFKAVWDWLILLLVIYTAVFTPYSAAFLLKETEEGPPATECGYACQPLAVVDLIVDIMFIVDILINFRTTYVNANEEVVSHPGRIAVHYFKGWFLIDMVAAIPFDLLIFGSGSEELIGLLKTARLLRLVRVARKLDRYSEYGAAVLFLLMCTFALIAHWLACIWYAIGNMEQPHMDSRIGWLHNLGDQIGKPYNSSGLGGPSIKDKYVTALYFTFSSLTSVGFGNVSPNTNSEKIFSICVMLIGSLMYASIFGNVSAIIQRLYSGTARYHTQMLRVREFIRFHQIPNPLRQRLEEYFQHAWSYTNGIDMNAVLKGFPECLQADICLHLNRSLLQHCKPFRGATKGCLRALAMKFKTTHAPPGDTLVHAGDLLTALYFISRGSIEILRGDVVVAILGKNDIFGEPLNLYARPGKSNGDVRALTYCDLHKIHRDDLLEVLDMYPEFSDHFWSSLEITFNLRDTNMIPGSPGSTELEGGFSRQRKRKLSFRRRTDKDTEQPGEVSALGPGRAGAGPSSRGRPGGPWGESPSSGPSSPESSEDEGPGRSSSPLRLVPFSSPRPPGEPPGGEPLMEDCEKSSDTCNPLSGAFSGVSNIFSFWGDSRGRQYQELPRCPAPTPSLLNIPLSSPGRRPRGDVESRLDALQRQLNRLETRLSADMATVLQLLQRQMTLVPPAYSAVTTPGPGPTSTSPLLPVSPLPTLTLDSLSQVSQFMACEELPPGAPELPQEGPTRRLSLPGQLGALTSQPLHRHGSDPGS

Compound	hERG current change (%, negative = inhibition) at 10uM
Cc1noc(C)c1S(=O)(=O)N1CCC(C(=O)N2CCN(Cc3ccc4c(c3)OCO4)CC2)CC1	-22.3%
Cc1ccc(C)c(-n2c(Cc3cc(=O)[nH]c(=O)[nH]3)nnc2SC(C)C)c1	1.98%
COc1ccc(OC)c(NC(=O)CCn2cccc2)c1	4.08%
COc1ccc(OC)c(C2/C(=C(/O)c3cnn(-c4ccccc4)c3C)C(=O)C(=O)N2CCN(C)C)c1 (stereo not shown)	20.1%
CCn1c(=O)cc(O)c2c(=O)n(C)c(=O)n(C)c21	9.61%
S=C(NCc1ccco1)Nc1ccccc1Cl	-52%
c1ccc(SCc2nc(-c3ccncc3)no2)cc1	-6.64%
OCCCNc1nc(-c2ccccc2)nc2c1oc1ccccc12	-9.08%
CC(C)(C)NC(=O)N1CCn2cccc2C1c1ccccc1F (stereo not shown)	0.239%
O=C(c1ccco1)N1N=C(c2ccncc2)CC1(O)C(F)(F)F (stereo not shown)	-4.02%
O=C1NCCN1Cc1ccccc1F	-0.688%
NC(=O)C1=C[C@@H](c2ccccc2)C[C@@H](OCCCCO)O1	5.53%
CN(C)Cc1cc(C(C)(C)C)cc(C(C)(C)C)c1O	2.44%
Cc1cccn2cc(-c3cc4ccccc4oc3=O)nc12	10.3%
CC1CCc2c(sc(NC(=O)C3=COCCO3)c2C(N)=O)C1 (stereo not shown)	11.1%
COc1ccc(S(=O)(=O)N2CCN(c3ccc(C)cc3C)CC2)cc1OC	5.72%
Cc1ccc(S(=O)(=O)N2CCCCC2)cc1NC(=O)COC(=O)Cc1c(F)cccc1Cl	-0.979%
CCCCOc1ccc(C(=O)NCc2ccncc2)cc1	1.76%
CC(=O)N1N=C(c2ccncc2)OC12CCCCCC2	-7.12%
CC(=O)c1ccc(NC(=O)/C(=C\c2ccco2)NC(=O)c2ccco2)cc1	-15.9%
Cc1ccc(-c2nc3ccccc3[nH]2)cc1NC(=O)/C=C/c1ccco1	-31.4%
Cc1cccc(OCC(O)CNC(=O)c2ccccc2C(=O)O)c1 (stereo not shown)	-21.2%
CCc1cc2c(=O)c(-c3nc4ccccc4[nH]3)coc2c(CN2CCCCC2C)c1O (stereo not shown)	-20.6%
O=C(CN(CC1CCCO1)C(=O)CNS(=O)(=O)c1ccccc1)NCCc1ccccc1 (stereo not shown)	10.8%
Cc1oc(S(=O)(=O)N2CCOCC2)cc1C(=O)Nc1ccc(F)cc1	-6.29%

Source: paper PMC4336329 (PLoS ONE, 2015)
